# About 2,200 (0.71%) of roughly 310,000 compounds showed an effect of 50% or more. The effect is printed as a negative number. The list shows a part of the results.
# Biological target: human ether-à-go-go-related gene (hERG) potassium channel (human, UniProt Q12809)
# Experiment: primary screen, population patch clamp on CHO cells stably expressing hERG
# Sequence of human ether-à-go-go-related gene (hERG) potassium channel (Q12809 whole entry, looked up): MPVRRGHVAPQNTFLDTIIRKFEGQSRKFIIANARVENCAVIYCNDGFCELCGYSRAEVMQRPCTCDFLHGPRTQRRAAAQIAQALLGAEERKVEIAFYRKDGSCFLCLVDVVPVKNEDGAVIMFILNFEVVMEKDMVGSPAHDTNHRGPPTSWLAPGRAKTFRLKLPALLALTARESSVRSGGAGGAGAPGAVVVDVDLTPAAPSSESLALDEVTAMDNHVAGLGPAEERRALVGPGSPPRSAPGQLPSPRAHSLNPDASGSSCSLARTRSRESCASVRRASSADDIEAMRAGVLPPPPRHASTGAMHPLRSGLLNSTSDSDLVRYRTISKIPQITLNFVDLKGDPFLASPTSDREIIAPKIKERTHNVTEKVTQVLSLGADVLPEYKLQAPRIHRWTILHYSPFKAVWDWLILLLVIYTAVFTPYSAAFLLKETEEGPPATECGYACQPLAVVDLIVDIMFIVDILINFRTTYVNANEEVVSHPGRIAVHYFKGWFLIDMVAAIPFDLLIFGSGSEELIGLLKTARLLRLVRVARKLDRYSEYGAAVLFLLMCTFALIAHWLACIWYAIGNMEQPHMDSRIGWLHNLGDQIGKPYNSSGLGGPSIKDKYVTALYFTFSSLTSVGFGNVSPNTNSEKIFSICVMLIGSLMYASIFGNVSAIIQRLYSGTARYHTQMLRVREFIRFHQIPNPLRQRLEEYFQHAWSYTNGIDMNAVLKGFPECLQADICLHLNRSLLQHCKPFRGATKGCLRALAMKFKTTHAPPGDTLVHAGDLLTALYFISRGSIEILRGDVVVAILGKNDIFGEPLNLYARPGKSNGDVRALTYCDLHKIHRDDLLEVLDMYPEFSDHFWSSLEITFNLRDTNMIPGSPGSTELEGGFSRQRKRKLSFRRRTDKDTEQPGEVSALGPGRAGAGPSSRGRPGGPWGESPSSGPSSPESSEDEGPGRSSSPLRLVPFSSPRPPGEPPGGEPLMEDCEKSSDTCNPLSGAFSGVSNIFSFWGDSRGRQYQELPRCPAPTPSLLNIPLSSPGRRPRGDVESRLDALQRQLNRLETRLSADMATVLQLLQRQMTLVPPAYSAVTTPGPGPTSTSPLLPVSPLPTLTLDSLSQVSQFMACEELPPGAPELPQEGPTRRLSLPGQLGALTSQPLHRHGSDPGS
row,SMILES,"hERG current change (%, negative = inhibition) at 1uM [%]"
1,COc1cc(-c2nnc(SCC(=O)c3ccc(C)cc3)o2)cc(OC)c1OC,13.5
2,CNC(=O)COC(=O)c1cc(F)c(F)cc1Cl,14.3
3,CC1=C(C(=O)OCc2ccccc2)C(c2cccc(F)c2)NC(=O)N1 (centres unmarked),10.4
4,COc1ccc(N2CCN(C(=O)CSc3ncn[nH]3)CC2)cc1,8.5
5,Cn1c(=O)c2c(-c3ccc(C(C)(C)C)cc3)n(N3CCOCC3)cc2n(C)c1=O,-18
6,COc1cc(OC)cc(C(=O)N[C@H](C(=O)Nc2ccccc2N2CCOCC2)C(C)C)c1,9.22
7,CCN(CC)S(=O)(=O)c1ccc(S(=O)(=O)N(CC(=O)Nc2ccccc2)Cc2ccco2)cc1,0.938
8,COc1ccc(C(N)CCc2ccco2)cc1.Cl (centres unmarked),9.14
9,Cc1ccc(C2=NNC(c3ccc(Cl)cc3)=Nc3ccccc32)o1,11.2
10,O=C(NCCOc1ccccc1)c1cc2ccccc2o1,3.1
11,CN1CCN(c2ccncc2S(=O)(=O)N2CCCCC2)CC1,13.8
12,O=C(c1cccc([N+](=O)[O-])c1)N1CCc2ccccc21,17.2
13,CCOc1cc(N2CCOCC2)c(OCC)cc1NC(=O)Cc1ccc(OC)c(OC)c1,10.1
14,CC1CCc2sc(-c3n[nH]c(=S)o3)cc2C1 (centres unmarked),9.17
15,Cc1ccc(C(=O)Nc2cc3c(oc2=O)CCCC3=O)cc1,4.72
16,C[N+]1(C)CCOC(O)(c2ccc(-c3ccc(C4(O)C[N+](C)(C)CCO4)cc3)cc2)C1.[Br-] (centres unmarked),9.47
17,Cc1ccc(C2c3c(-c4ccccc4O)n[nH]c3C(=O)N2Cc2ccncc2)cc1 (centres unmarked),12.8
18,N#CCCN(Cc1ccccc1)C(=O)Nc1ccc2c(c1)CCO2,13.2
19,CC(C(=O)Nc1ccc(C#N)cc1)N(C)CC(=O)Nc1ccccc1Br (centres unmarked),12.4
20,O=C(CCCCCN1C(=O)c2cccc3cccc(c23)C1=O)NCc1ccco1,15.1
21,Cn1c(=O)c2c(nc(OCc3cccnc3)n2Cc2ccccc2)n(C)c1=O,-8.26
22,CCO[C@H]1OC(C(N)=O)=C[C@@H](C2CCCCC2)[C@@H]1CCCO,13.6
23,C=CCn1c(SCc2ccccc2Cl)nnc1-c1sc2nc(C)cc(C)c2c1N,12.2

row,SMILES,"hERG current change (%, negative = inhibition) at 1uM [%]"
1,O=C1CC(Sc2ncccc2C(=O)O)C(=O)N1 (centres unmarked),5.9
2,Cc1ccccc1C(=O)OCc1nnc(-c2ccc(Cl)cc2)o1,11.2
3,CCN1C(=O)c2cccc3c(S(=O)(=O)NCC4CCCO4)ccc1c23 (centres unmarked),11.1
4,COc1ccc(N(CC(=O)O)S(=O)(=O)c2ccc(C)cc2)cc1Cl,19.2
5,CC(=O)c1ccc(N2CCN(C(=O)c3cc4c(-c5ccccc5F)nn(C)c4s3)CC2)cc1,-11.6
6,COC(=O)C1(C)Nc2ccccc2C(=O)N1c1ccccc1C (centres unmarked),2.92
7,O=C(c1cc(COc2ccc(F)cc2Cl)on1)N1CC[C@@H]2CCCC[C@H]2C1,11.3
8,COc1ccc(/C=C/C(=O)O)cc1S(=O)(=O)NCc1cccnc1,7.86
9,CC1Sc2ccc(C(=O)Nc3ccccc3OC(F)F)cc2NC1=O (centres unmarked),9.85
10,CCCCN(CC(O)COc1cccc(C)c1)CC(O)COc1cccc(C)c1 (centres unmarked),-33
11,COc1ccc(-c2nc(NC(=O)c3nc4nccc(C)n4n3)sc2C)cc1,16.8
12,COc1ccc2cc(C(c3nnnn3Cc3ccc(F)cc3)N3CCCCCC3)c(=O)[nH]c2c1 (centres unmarked),-10.2
13,O=C(OCCN1C(=O)c2cccc3c(N4CCOCC4)ccc(c23)C1=O)c1ccc(Cl)cc1,12.3
14,Cc1cccc(OCC(=O)NCCCNC(=O)c2ccncc2)c1,11
15,O=C(O)c1cccc2c1C(=O)N(Cc1ccccc1)C2,-0.282
16,O=C(CSc1nc2c(c(=O)n1-c1ccc(Cl)cc1)SCC2)Nc1ccc2c(c1)OCCO2,15.6
17,CCn1nnnc1SCC(=O)Nc1cc(OC)cc(OC)c1,11.1
18,O=C(Nc1cccnc1)c1cc(-c2ccc(Br)cc2)on1,14.1
19,Cc1c(C(=O)N2CCN(c3ccccc3)CC2)oc2c(F)cccc12,21.4
20,CCNC(=S)NS(=O)(=O)c1ccccc1,9.45
21,Oc1ccc(Br)cc1C=Nc1cccn2cc(-c3ccccc3)nc12,11.6
22,COC(=O)c1ccc(C(=O)N=c2sccn2C)cc1,1.84
23,COc1ccc(NC(=O)c2sc3ncn(CC(=O)N4CCN(c5ccccn5)CC4)c(=O)c3c2C)cc1OC,23.1

row,SMILES,"hERG current change (%, negative = inhibition) at 1uM [%]"
1,COc1cccc(CNC(=O)CCCc2nnc3n(C)c(=O)c4sccc4n23)c1,10.4
2,CCNC(=O)CC1C(=O)N(c2ccc(OC)cc2)C(=S)N1CCc1ccncc1 (centres unmarked),1.1
3,Cc1nccn1Cc1ccc(Cl)nc1,20.8
4,COc1ccc(-c2c(-c3ccccc3OC)sc3ccccc23)cc1,11.6
5,Cc1ccccc1OCC(=O)NNC(=O)c1ccoc1C,6.46
6,CCCN(CCC)CCCNC(=O)C1CCN(S(=O)(=O)c2cccc3nsnc23)CC1,12.5
7,Clc1ccc(Oc2cnns2)cc1Cl,9.79
8,O=c1oc2c(O)cccc2cc1-c1nc2ccccc2[nH]1,12
9,CCOc1ccc(NC(=O)CNC(=O)c2ccco2)cc1,20.2
10,Cc1ccc(NC(=O)c2ccc3nsnc3c2)c(C)c1,12.2
11,C/C(=N\NC(=O)CSCc1ccc([N+](=O)[O-])cc1)c1ccccc1,8.06
12,COc1ccc2ccccc2c1CN(C)Cc1ccccc1.O=C(O)C(=O)O,4.87
13,COC(=O)c1nc(N)sc1C,9.62
14,Cc1cc(C)c(S(=O)(=O)N2CCCC(C(=O)NC3CC3)C2)c(C)c1 (centres unmarked),-24.5
15,COC(=O)c1ccc(N2CCN(C)CC2)c(NC(=O)c2ccc(-c3ccc(Cl)cc3)o2)c1,7.15
16,CCN(CC)S(=O)(=O)c1cccc(-c2nnc(SCc3nc4ccccc4s3)o2)c1,5.17
17,CCCc1cc(=O)[nH]c(SCc2nc3ccccc3s2)n1,8.57
18,O=C(Cn1cnc(S(=O)(=O)N2CCCC2)c1)Nc1ccccc1,12.6
19,Cc1ccc2oc(C(=O)Nc3cc(C)on3)c(C)c2c1,0.256
20,COc1cc(NC(=O)c2ccc(C)cc2)c(OC)cc1NC(=O)CN1CCOCC1,10.9
21,COc1cc([N+](=O)[O-])ccc1NC(=O)CSc1nncn1-c1cccnc1,4.81
22,O=c1oc(-c2cccc(Cl)c2)nc2c1cnn2-c1ccccc1,11.1
23,O=c1oc2ccccc2c(N2CCC(c3ccccc3)CC2)c1[N+](=O)[O-],7.13

row,SMILES,"hERG current change (%, negative = inhibition) at 1uM [%]"
1,CC(C)c1ccc(/C=C/C(=O)Nc2nc3ccc([N+](=O)[O-])cc3s2)cc1,-4.72
2,CCOC(=O)c1c(C)c(P(=S)(N2CCOCC2)N2CCOCC2)n(C)c1C,0.622
3,Cc1cnc(C(=O)NC(Cc2ccccc2)c2ccccc2)cn1 (centres unmarked),10.5
4,Cn1c(=O)nc2n(Cc3ccccc3)c3ccccc3cc-2c1=O,9.33
5,O=C(CCN1CCN(c2ccccc2)CC1)NNC(=O)Cc1ccccc1Cl,14.2
6,C[C@]12CC[C@H]3C(CCC4(O)CC(O)CC[C@]34C=O)C1=CC[C@H]2c1ccc(=O)oc1 (some centres unmarked),15.7
7,O=S(=O)(Nc1cc(Cl)cc(Cl)c1)N1CCOCC1,13
8,O=C(CN1C(=O)NC2(CCCCCC2)C1=O)NCCc1ccc(F)cc1,-0.0593
9,O=C(NC1CC1)C1CCN(C2CCN(C(=O)/C=C/c3cccs3)CC2)CC1,-4.6
10,COc1ccc(Cn2ccnc2)cc1[N+](=O)[O-],-3.67
11,COCCSc1nnc(NC(=O)C2CC(=O)N(C3CCCC3)C2)s1 (centres unmarked),16
12,CCc1c(C)sc(NC(=S)N2CCN(CC)CC2)c1C(=O)OC,14.1
13,COc1ccc(NC(=O)NNC(=O)COc2cc(C)c(Cl)c(C)c2)c(OC)c1,15.4
14,NS(=O)(=O)c1ccc(NC(=O)COC(=O)C2CC(=O)N(Cc3ccccc3)C2)cc1 (centres unmarked),25.2
15,Cc1cc(C(=O)N2CCCC(Nc3ccc(F)cc3)C2)n(C)n1 (centres unmarked),18.9
16,CN(C)S(=O)(=O)c1ccc(Cl)c(C(=O)OCC(=O)NC(=O)NC2CCCC2)c1,18.2
17,N#C/C(=C/c1ccc(-c2ccccc2[N+](=O)[O-])o1)C(N)=O,18.6
18,Cc1ccc(S(=O)(=O)c2nc(S(=O)(=O)c3ccc(C)cc3)c(N3CCN(CCO)CC3)s2)cc1,-0.188
19,Cc1nc2n[nH]c(N)c2c2c1COC(C)(C)C2,-8.72
20,COc1ccc2[nH]c(=O)c(CN(Cc3nnnn3Cc3ccco3)C3CCCCC3)cc2c1,9.9

# From article PMC4336329 (PLoS ONE, 2015)
